The list shows a part of the results.
Tested on: PfAP2-HC AP2 domain (GST-tagged)
Experiment: gcPBM binding intensity (ln(normalized median fluorescence intensity)); higher = stronger DNA binding
Outline: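 Alexa488 anti-GST antibody, scanned at 488 nm, detected GST-tagged P. falciparum DNA-binding domains that had been expressed in E. coli and incubated for 1 h on an Agilent 4 × 180k array. The array carried primer-extended double-stranded 36-bp intergenic genomic probes and negative controls. Binding intensity is the highest Masliner-normalised natural-log median intensity across replicate spots of either orientation of each probe.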

Row | Sequence | gcPBM binding intensity (ln)
1 | AAAACTTTTAGTTATACACACAACATAGAAAATATT [CACACA_site6287] | 9.84
2 | AACAATCAAATAGACACACACACACCCAAACATAAA [CACACA_site2757] | 10.6
3 | CTCCTACAAATATGTAGTACATTCAAAATAAATACC [XGTACX_site8207] | 9.45
4 | GTAAAAAATATGAATACACACATAAAGGAAATAACA [CACACA_site1997] | 10.2
5 | AAAAAAAAAAAATTCACACACATATAAAAAATTAAG [CACACA_site728] | 10
6 | AAAAAAAAAAAAAAAAGTACAGACGTCAAAAAAAAA [XGTACX_site4817] | 9.51
7 | TAATATATAAGTATTTGTACATATTCATTCATCTAT [XGTACX_site2935] | 9.73
8 | TTTTTTTTTTTTTTTTTTTTTTTTGGGTCCCATACA [CACACA_negctrl_site913] | 8.88
9 | TTTTAATTATATTATGCACACACAATTGGAAAAAAA [CACACA_site8598] | 9.76
10 | AACAAATAAGATAAATGACTTAACAAAAGAAAAAAG [CACACA_negctrl_site1409] | 9.96
11 | CTTATACATTATTAACGTACATGTTATATGAATAAC [XGTACX_site5752] | 9.6
12 | TTTTTTTTTTTTTTTTTTTTTTTTAAATGCTTCTAA [TGCATGCA_negctrl_site253] | 8.94
13 | CACTATCAATATATATGTACATATATATATATATAT [XGTACX_site7854] | 9.76
14 | GTCACATTGTTATATTGTACAAATGTCGTTCTTTTT [XGTACX_site8098] | 9.78
15 | TAAATATATAAATACACACAAACATACATATATATA [CACACA_site4050] | 10.1
16 | ATATAAAAATATATTAATATAAATAAATGGACATAT [XGTACX_negctrl_site488] | 10.1
17 | AAAAAAAAAAAAAAATGTACTTTTATTATTAATATA [XGTACX_site6357] | 9.48
18 | TTTGAACTTTTATATACACACATTATTATAGTATAG [CACACA_site6851] | 9.77
19 | AGTTCATATTTAAAAAGTACATATTTAAAAACTTCT [XGTACX_site4882] | 9.4

Row | Sequence | gcPBM binding intensity (ln)
20 | ATGCATATATTTATGTGTACATATATTTGTAGGGGG [XGTACX_site6063] | 11.2
21 | TTCTTTGTTTTTTTTTTTTTTTTAAAAGATAATATT [XGTACX_negctrl_site381] | 9.5
22 | TTTATTTTTCATTGGGGTACACAAGTTTATTTTTGA [XGTACX_site4262] | 9.63
23 | ATATCGTTTTTAAATTGTACATTCACTATAGAATAA [XGTACX_site6442] | 9.52
24 | ATATATTTATTTTGTGCACACAACGCAAACCTTTTA [CACACA_site3508] | 10.2
25 | ATTTTTTCTTTTCGATGTACCCTTCTTATTCTTTAT [XGTACX_site3782] | 10.1
26 | TATATCGCCTTCAAAAGTACTCATATAAAAAAAAAA [XGTACX_site7123] | 9.04
27 | ATATCGAAAATTTGGTGTACATTTTTATTTGTTCAA [XGTACX_site3094] | 9.65
28 | AGAATATATAAGTATACACACATATATATATATATA [CACACA_site201] | 10
29 | GATATTACGTGTTTGGTATTTTTTGATGTTAATAGG [CACACA_negctrl_site105] | 9.75
30 | TATAAAATAATTAAATGTACATAATATATAAAATAT [XGTACX_site6777] | 9.75
31 | TTATAAATATTCACTGTGCACTGATGGAATATAAAT [GTGCAC_site9739] | 9.47
32 | AACAAAGAGAAATAAACACACACAAAATAAAGAAAA [CACACA_site8704] | 10.7
33 | ATTAATTAAAATAGTTGTACAATCAAAAAAACAAAA [XGTACX_site7660] | 9.91
34 | TTTTTGTATGCTTCCCGACTACATTATGTCGTAAAT [GTGCAC_negctrl_site164] | 9.75
35 | AAATTAAAAATAATTACACACATAGAAAAGTTATAT [CACACA_site7137] | 10.1
36 | TTTTGCAAATATTACTGTACACAATCTCATATAATT [XGTACX_site2584] | 9.67
37 | TTTTCAGAAAGACATGCATACAAAAATAAAAAAGAT [TGCATGCA_site814] | 9.71
38 | CATTCTACAATAAAAAGTACATATATATATTATATA [XGTACX_site921] | 9.51

Row | Sequence | gcPBM binding intensity (ln)
39 | TCAAAAAAAATTTTAGTGCATATTTTAGTCAAAACA | 9.39
40 | ATTTAAATAATATGTACACACATTTAAAAAGTTATA [CACACA_site7347] | 9.68
41 | AAATTAAATGATAGAGCATGCGCTAAAAATGAGAAA [TGCATGCA_site937] | 10
42 | ACACATATAATAGTTACATGCAAAAATACTTTTATT [TGCATGCA_site785] | 10
43 | TTTTTATAACATAAAAGTACATATTTTTAATTTAAT [XGTACX_site4394] | 9.35
44 | TTTTTTTTATTATAAATATATATATTATAAAACGAA [XGTACX_negctrl_site189] | 9.29
45 | ACCCAAGAGAAAAGAGAAAGAAATATGTGTATATTG [GTGCAC_negctrl_site214] | 9.48
46 | TTATAGTAATAATAATGTACATTTATACACATATAT [XGTACX_site1965] | 9.77
47 | ATATATATATATATAACATGCAAAGTTCAAAAAAAA [TGCATGCA_site943] | 9.72
48 | AAAAAAAACAGACACACACACACATATACATACATA [CACACA_site2665] | 11.5
49 | ATTTTATTTAAATACACACACATATATATATTATAT [CACACA_site4607] | 10
50 | CACAGACACCCATACACACACATACCCATATATATA [CACACA_site5023] | 10.3
51 | CTACATATGTATAATATGCACACGTCATTTTCCCCT [CACACA_site2107] | 9.81
52 | AATTATCAGGAATGATGTACTGAAATAAAAAAAAAA [XGTACX_site3280] | 9.6
53 | AAAAAAAAAAAAAAAGCACACATCATATTTTAATTC [CACACA_site9109] | 9.9
54 | ACACAAAAATGAAAAATGAAAAGGGTAATATATATA [CACACA_negctrl_site1490] | 9.82
55 | AGTATTATTTACTGCGCATGCTATTTATATATATTA [TGCATGCA_site876] | 9.81
56 | AATAGAAATTATATAAACATAAATGAATAAATAAAT [CACACA_negctrl_site1817] | 9.82

From the supplement of paper PMC11417369
